From PubChem BioAssay AID1347417 (National Center for Advancing Translational Sciences (NCATS), 2020)
In all, about 120,000 compounds went through this assay and about 5,300 (4.4%) were called active. Inconclusive results, whose numbers are uncertain, are shown with a selection of clear calls. Calls follow the shape of the dose curve; as a rule, active = well fitted inhibition curve with a large enough effect; inconclusive = small, poorly fitted or top-dose-only effect; inactive = no such curve, though single readings can be large or run the other way. A potency beside an inconclusive call is a rough fit, not a confirmed value.

test: qHTS Primary assay for Inhibitors of Plasmodium falciparum Dd2 growth in vitro; also: nearly all actives have a fitted effect of over 65% in size;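 as to activity, negative = inhibition: plate controls were DMSO vehicle for no effect and reference drug for full effect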; details: P. falciparum Dd2 growth, SYBR Green, 72 h; activity, negative = inhibition: at 28.9 µM (top of the series) unless noted; series mostly up to 28.9 µM
Outline: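 Readout: SYBR Green fluorescence, 485 nm excitation, 535 nm emission, after ~16 h lysis at 37C. Before that, Dd2-infected red cells (2.5% hematocrit) grew 72 h with compound, 29 uM top final concentration.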
Potency is read from the fitted curve at half-maximal effect; tags tell the direction and shape of the fitted curve.

Row | SMILES | Potency | activity, negative = inhibition | outcome
1 | COc1ccc(C(=O)N2CCN(C(=O)C3CCCCC3)C[C@@H]2C(=O)N[C@H]2CCCNC2=O)cc1 | inconclusive: 1.41 µM [inhibitor, full curve, poor fit] |  | 
2 | COc1cccc(Nc2sc(C(=O)c3ccc4c(c3)OCO4)c(N)c2S(=O)(=O)c2ccccc2)c1 | inconclusive: 14.1 µM [inhibitor, single point] |  | 
3 | CC(=O)c1cccc(NC(=O)c2sc(-n3nc(C)c(CCC(C)C)c3C)nc2C)c1 |  | inconclusive: -45% [inhibitor] [at 0.594 µM] | 
4 | COCc1noc(CNc2cc(-c3ccccc3F)nc3ccnn23)n1 |  |  | inactive
5 | Cc1ccc(-c2nnc3ccc(-c4ccoc4)nn23)nc1 | inconclusive: 0.355 µM [inhibitor, full curve, poor fit] |  | 
6 | CCOC(=O)c1ccc(NC(=O)COc2ccc(-c3nnc4n3CCCC4)cc2)cc1 | inconclusive: 2.24 µM [inhibitor, full curve, poor fit] |  | 
7 | CC(C)CNC(=O)[C@H]1CCC[C@H]1NC(=O)c1ccncc1 |  | inactive: 14.8% | 
8 | Cc1ccccc1Nc1sc(C(=O)c2ccc(F)cc2)c(N)c1C(=O)NCCc1ccccc1 | inconclusive: 17.8 µM [inhibitor, single point] |  | 
9 | N#Cc1cc2c(nc1SCC(=O)Nc1ccc(OC(F)(F)F)cc1)C1CCN2CC1 | inconclusive: 4.47 µM [inhibitor, partial curve, poor fit] |  | 
10 | CCc1ccc(C(=O)N2CCC(Oc3ncccc3C(=O)N3CCCCC3)C2)cc1 (stereo not drawn) | inconclusive: 17.8 µM [inhibitor, single point] |  | 
11 | COc1cccc(S(=O)(=O)N2CC3(C2)C(=O)Nc2ccccc23)c1 |  | inactive: -0.364% | 
12 | CN(Cc1ccsc1)C(=O)c1ccc(C#CC(C)(C)O)o1 |  | inactive: -34% | 
13 | N#Cc1cccc(CN2CC[C@H](c3nc4ccccc4[nH]3)C2)c1 | inconclusive: 31.6 µM [inhibitor, single point] |  | 
14 | COc1ccc(C2=NC3(CCCCCC3)N(CC(=O)Nc3ccc(C)c(C)c3)C2=O)cc1 | inconclusive: 10 µM [inhibitor, single point] |  | 
15 | Clc1cc(NCC2CCCCCC2)n2nccc2n1 |  | inactive: -13.6% [at 44.1 µM] | 
16 | O=C(NC1CCCC1)N1CCC2(C1)C(=O)N(CCc1ccccc1)c1ccccc12 (stereo not drawn) | inconclusive: 12.6 µM [inhibitor, single point] |  | 
17 | COc1cccc(-c2cc3c(=O)n(CCNC(=O)c4ccccc4F)ccn3n2)c1 | active: 12.6 µM |  | 
18 | COc1ccc(-c2nn(-c3ccccc3)cc2CN2CCN(C)CC2)c(F)c1 | active: 10 µM |  | 
19 | O=C1CO[C@H]2CCN(Cc3ccccc3Cl)CC[C@@H]2N1c1ccccc1 |  | inactive: -19.6% [at 44.1 µM] | 
20 | COc1ccccc1N1CCN(S(=O)(=O)c2c(C)sc3ncn(CC(=O)Nc4ccc(C(C)C)cc4)c(=O)c23)CC1 | inconclusive: 8.91 µM [inhibitor, single point] |  | 
21 | CCn1ncc(C(=O)N[C@@H]2CN(c3ncccn3)C[C@H]2CN(C)C)c1C |  | inactive: 45.9% | 
22 | O=C(c1cccs1)N1CCC2(CC1)CC(OCC1CC1)CCO2 (stereo not drawn) |  | inactive: 23.5% | 
23 | CC1CCN(CCCNC(=O)CN2C(=O)CSc3ccc(S(=O)(=O)N4CCC(C)CC4)cc32)CC1 | active: 8.91 µM |  | 

Row | SMILES | Potency | activity, negative = inhibition | outcome
24 | c1coc(-c2nc(CNC3CCC4(CCNCC4)CC3)no2)c1 | active: 11.2 µM |  | 
25 | COCCn1ccc2c(NC(=O)Cn3nc4c(cc3=O)CCCC4)cccc21 | inconclusive: 12.6 µM [inhibitor, partial curve, poor fit] |  | 
26 | COc1ccccc1C(C)N(C)C(=O)c1csc2nc(-c3ccccc3C)cn12 (stereo not drawn) | inconclusive: 0.112 µM [inhibitor, full curve, poor fit] |  | 
27 | CCOc1cc(CNC(=O)c2ccc3c(c2)nc2n3CCCCC2)ccc1OC | inconclusive: 5.62 µM [inhibitor, partial curve] |  | 
28 | O=C(c1ccco1)N1CCc2c(nc(-c3ccc(F)cc3)[nH]c2=O)C1 | inconclusive: 3.98 µM [inhibitor, single point] |  | 
29 | Cc1ccc(-c2ncc(C(=O)Nc3ccccc3Br)c(-c3ccncc3)n2)cc1 | inconclusive: 3.16 µM [inhibitor, single point] |  | 
30 | Cc1ccccc1C(=O)Oc1cc(-c2ccc3c(c2)OCO3)cc(=O)c2c(C)oc(C)c12 | inconclusive: 11.2 µM [inhibitor, single point] |  | 
31 | CN(Cc1ccccc1)Cc1c(O)ccc2c(=O)c(-c3ccccc3)c(C(F)(F)F)oc12 | active: 3.98 µM |  | 
32 | CCN(C(=O)c1sc2cc(OC)ccc2c1Cl)c1ccccc1 | inconclusive: 17.8 µM [inhibitor, single point] |  | 
33 | O=C(NCCCn1ccnc1)C1CCCN(c2nc(-c3ccccc3)nc3c2CCC3)C1 (stereo not drawn) |  |  | inactive
34 | Cc1ccc(-c2noc([C@@H]3C[C@@H](O)CN3C3CCCCC3)n2)cc1F | inconclusive: 8.91 µM [inhibitor, partial curve, poor fit] |  | 
35 | CC1(C(=O)N2CCC2)CN(Cc2ccccc2)Cc2ccc(N3CCOCC3)nc21 (stereo not drawn) |  | inactive: -10.8% [at 44.1 µM] | 
36 | O=C(NC1CCCC1)c1cnn(-c2ccc(F)cc2F)c1C1CCNCC1 |  | inconclusive: -88.1% [inhibitor] [at 5.79 µM] | 
37 | COc1ccc(Cl)cc1NC(=O)CSc1nc2c([nH]c3ccccc32)c(=O)n1-c1ccccc1 | active: 4.47 µM |  | 
38 | Cc1cccc(Cn2c(=O)n(CCCCC(=O)NCc3ccc4c(c3)OCO4)c(=O)c3ccccc32)c1 | inconclusive: 3.16 µM [inhibitor, full curve] |  | 
39 | Oc1cccc(-c2cc(C[C@@H]3CC[C@H](O)[C@@H](CNC4CCC4)O3)no2)c1 |  | inactive: 3.6% [at 44.1 µM] | 
40 | CNC(=O)[C@@H]1CN(Cc2ccccc2OC(F)(F)F)C[C@H]1CO |  | inactive: 6.36% | 
41 | Clc1ccccc1Cc1nc(-c2ccc(OC3CCNC3)cc2)no1 (stereo not drawn) | inconclusive: 2.24 µM [inhibitor, partial curve, poor fit] |  | 
42 | COc1ccccc1NC(=O)N1CC(C(=O)NCC2CC2)CC(c2ccccc2)C1 (stereo not drawn) |  |  | inactive
43 | COc1ccc(Cl)cc1-c1ccc2c(c1)C(=O)N1C[C@@H](NS(=O)(=O)c3ccc(F)cc3)C[C@H]1C(=O)N2 | active: 7.08 µM |  | 
44 | O=C(Cc1ccccc1F)N1CCOc2ccc(CN3CCc4ccccc4C3)cc2C1 | inconclusive: 1.78 µM [inhibitor, full curve, poor fit] |  | 
45 | O=C(c1cccc(C(F)(F)F)c1)N1CCOCC2(CN(Cc3cc(F)cc(F)c3)C2)C1 |  |  | inactive [at 44.1 µM]
46 | COCCN1C(=O)c2ccccc2C(C(=O)Nc2nnc(C3CC3)s2)C12CCCC2 (stereo not drawn) | inconclusive: 11.2 µM [inhibitor, single point] |  | 

Row | SMILES | Potency | activity, negative = inhibition | outcome
47 | O=C(C[C@@H]1CCNC[C@@H]1Cc1cc(COc2ccccc2)on1)NCc1ccc(F)cc1 | inconclusive: 7.94 µM [inhibitor, single point] |  | 
48 | O=C1NC(=NC2CCCC2)C2(CCCN(Cc3ccsc3)C2)N1c1cc(F)cc(F)c1 (stereo not drawn) | active: 5.01 µM |  | 
49 | CCc1nncn1C1CCN(S(=O)(=O)c2ccc(F)c(Cl)c2)CC1 |  |  | inactive
50 | Cc1nc2n(c1C(=O)Nc1nccs1)CCC(Nc1ccccc1)C2 (stereo not drawn) |  |  | inactive [at 44.1 µM]
51 | O=C(Nc1ccc2c(N3CCCC3)ncnc2c1)c1cccc(Br)c1 | active: 0.891 µM |  | 
52 | O=C(Nc1ccc(F)c(F)c1)c1cc(S(=O)(=O)N2CCc3ccccc32)ccc1F |  | inactive: 9.97% | 
53 | Cc1ccc(Cl)cc1-n1nc(-c2c(C)nc3scc(CC(=O)NCCC(C)C)n3c2=O)cc1C | active: 7.94 µM |  | 
54 | O=C(CN1C(=O)NC(c2ccccc2Cl)C2=C1COC2=O)Nc1ccc(F)cc1F (stereo not drawn) | inconclusive: 12.6 µM [inhibitor, single point] |  | 
55 | Cc1nn2c(c1-c1ccccc1N1CCCC1)N(C(=O)C(C)C)CCC2 | inconclusive: 8.91 µM [inhibitor, partial curve, poor fit] |  | 
56 | Cc1ccc(CNc2nc3c(c(=O)n(C)c(=O)n3C)n2Cc2ccc(Cl)cc2)cc1 |  | inactive: 6.38% | 
57 | COC(=O)[C@@H]1Cc2ncn(Cc3ccccc3)c2CN1C(=O)c1cccs1 | inconclusive: 12.6 µM [inhibitor, partial curve] |  | 
58 | CC(C)CCN1CCOc2cc(C(=O)NCc3cccs3)ccc2C1 | inconclusive: 10 µM [inhibitor, partial curve, poor fit] |  | 
59 | COc1ccc2c(c1)OCC(CNC(=O)c1csc(C(C)=O)c1)C2 (stereo not drawn) |  | inactive: 0.317% | 
60 | CCOc1ccccc1CN1C[C@@H](CO)[C@H](C2CCN(C(C)=O)CC2)C1 | inconclusive: 11.2 µM [inhibitor, partial curve] |  | 
61 | CCOC(=O)c1[nH]c2ccccc2c1NC(=O)c1cc(OC)cc(OC)c1 | inconclusive: 8.91 µM [inhibitor, partial curve] |  | 
62 | COC[C@]1(O)CCN(C(=O)c2ccc3c(c2)CCC3)CC1(C)C |  | inactive: -9.28% | 
63 | Cc1csc(NC(=O)c2cnc3c(c2)N([S+](=O)([O-])c2cccnc2)CCC3)n1 | inconclusive: 35.5 µM [inhibitor, single point] |  | 
64 | O=Cc1cccc(-c2cc(F)cc(F)c2)c1 |  | inactive: 20.8% [at 44.1 µM] | 
65 | COc1ccc(S(=O)(=O)c2c(SC)nn(CC(=O)Nc3ccc(C)c(Cl)c3)c2N)cc1 | inconclusive: 11.2 µM [inhibitor, partial curve, poor fit] |  | 
66 | CC1=C[C@@H](CNCCN2CCOCC2)[C@H](C(C)C)C[C@H]1Cc1nnc(-c2ccccc2)o1 | active: 3.98 µM |  | 
67 | CCc1nc2c(cnn2-c2ccc(C)cc2)c(=O)n1-c1ccc(C)cc1 | inconclusive: 17.8 µM [inhibitor, single point] |  | 
68 | CCOC(=O)c1cccc(NC(=O)N2CC[C@@H](CC(=O)NCCOC)[C@@H](CC)C2)c1 | inconclusive: 31.6 µM [inhibitor, partial curve, poor fit] |  | 
